Experimental data published in the supplement of paper PMC3334620.
Whole data set: some 33,000 sequences, median “E-score (-0.5 to 0.5)” near -0.012, cut for the highest 2% near 0.29. Some of the results follow.

biological target: T1, Ybr033w (UniProt P38073); experiment: PBM E-score (8-mer binding enrichment) (E-score (-0.5 to 0.5)); higher = stronger / more preferred TF binding; most listed sequences are background and not binding sites; details: protein concentration: 200 nM; construct: GST-full length
T1 sequence: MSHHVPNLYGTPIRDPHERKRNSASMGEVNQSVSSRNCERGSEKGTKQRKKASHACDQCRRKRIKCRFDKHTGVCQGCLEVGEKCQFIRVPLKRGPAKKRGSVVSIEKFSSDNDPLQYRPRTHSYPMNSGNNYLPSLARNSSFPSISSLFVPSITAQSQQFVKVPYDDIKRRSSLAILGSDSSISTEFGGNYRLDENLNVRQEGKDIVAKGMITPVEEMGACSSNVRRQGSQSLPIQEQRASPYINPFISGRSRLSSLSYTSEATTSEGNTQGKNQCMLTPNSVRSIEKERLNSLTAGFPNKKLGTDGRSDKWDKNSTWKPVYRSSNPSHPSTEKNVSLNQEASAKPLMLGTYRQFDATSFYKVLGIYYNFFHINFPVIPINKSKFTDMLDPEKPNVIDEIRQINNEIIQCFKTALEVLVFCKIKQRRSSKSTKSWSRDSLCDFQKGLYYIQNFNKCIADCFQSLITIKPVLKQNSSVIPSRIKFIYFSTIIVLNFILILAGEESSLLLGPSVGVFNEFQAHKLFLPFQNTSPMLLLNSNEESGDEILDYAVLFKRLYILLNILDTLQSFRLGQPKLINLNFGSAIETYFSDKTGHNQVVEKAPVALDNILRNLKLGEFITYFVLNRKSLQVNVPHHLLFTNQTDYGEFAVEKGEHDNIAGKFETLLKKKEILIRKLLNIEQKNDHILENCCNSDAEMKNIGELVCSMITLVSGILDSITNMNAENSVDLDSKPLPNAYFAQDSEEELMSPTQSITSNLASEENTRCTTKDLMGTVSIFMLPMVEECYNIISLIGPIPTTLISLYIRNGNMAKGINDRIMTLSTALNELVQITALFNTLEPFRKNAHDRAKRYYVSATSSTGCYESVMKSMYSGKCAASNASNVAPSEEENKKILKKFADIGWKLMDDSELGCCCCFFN
Outline: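 Full-length yeast transcription factors or their DNA-binding domains, GST-tagged and expressed with PURExpress, were applied at about 100-200 nM to universal all-10-mer Agilent arrays. These arrays had been made double-stranded by primer extension on fresh or once-stripped slides. Detection used fluorescent anti-GST, normalisation used masliner, and E-scores for ungapped eight-base words pooled with reverse complements came from the Universal PBM Analysis Suite.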

Compared with TCGCAGCA, CACGCCCG is lower in “PBM E-score” value: 0.0667 for the first, -0.277 for the second.

First: CCAGATTC
Second: ATGTGGAG
The “PBM E-score” value of the first is lower: -0.16 for the first, -0.0381 for the second.

Going from GAATGCCC to GAAACATC, the “PBM E-score” value rises from -0.213 to 0.0437.

Compared with CTGACCAG, AGCGAGAG is higher in “PBM E-score” value: -0.146 for the first, 0.00928 for the second.

Going from ATAGACGG to AGTAGAGG, the “PBM E-score” value falls from 0.0323 to -0.227.

Going from GCCACGAC to AGTTACGC, the “PBM E-score” value rises from -0.0933 to 0.0115.

Going from TAACTGTA to AATGACCT, the “PBM E-score” value falls from 0.18 to 0.00023.

Compared with ATTGGAAC, CTCTGTTA is lower in “PBM E-score” value: 0.178 for the first, -0.0214 for the second.

Compared with CCATGGAA, GTGTGGAA is lower in “PBM E-score” value: 0.201 for the first, 0.136 for the second.

Going from AGGTGATG to GAAAGGAA, the “PBM E-score” value rises from -0.257 to -0.0127.

Compared with TAGTATCA, CTACATCA is lower in “PBM E-score” value: 0.319 for the first, -0.0278 for the second.

Compared with GCACTGTA, ACCTCGTG is lower in “PBM E-score” value: 0.0862 for the first, -0.00908 for the second.

Going from CTCTAATA to AACAGCCA, the “PBM E-score” value falls from 0.206 to 0.18.

Compared with ACGACCGG, AAACTGAA is higher in “PBM E-score” value: -0.141 for the first, 0.156 for the second.

First: ATTATGTG
Second: AAGGGTTC
The “PBM E-score” value of the first is higher: 0.11 for the first, -0.0274 for the second.

First: ACTTATTG
Second: ACTTCGCC
The “PBM E-score” value of the first is higher: 0.0631 for the first, -0.0391 for the second.

Compared with ATGTCGTC, CCACGATA is lower in “PBM E-score” value: 0.0324 for the first, -0.0117 for the second.

Going from CCTTTACA to GGGCCTAA, the “PBM E-score” value falls from 0.0118 to -0.269.

First: AAGGATAC
Second: CGAGTTCA
The “PBM E-score” value of the first is higher: 0.0266 for the first, -0.00581 for the second.

Going from GCCCTGCA to CGGCTGTA, the “PBM E-score” value rises from -0.149 to -0.146.

Compared with AAGATACC, AACCGAAG is lower in “PBM E-score” value: 0.118 for the first, -0.00014 for the second.

Going from AGACGTAA to CTCCTGAA, the “PBM E-score” value falls from 0.00773 to -0.0383.

First: GGATAGAA
Second: CCTGCGAG
The “PBM E-score” value of the first is higher: 0.126 for the first, -0.129 for the second.

First: GCTAGACA
Second: ACCGAGAT
The “PBM E-score” value of the first is lower: -0.0654 for the first, 0.0351 for the second.

First: TGATTAAA
Second: ACAGGCTA
The “PBM E-score” value of the first is higher: 0.27 for the first, -0.0126 for the second.

First: ATTTTAAG
Second: CATTTTCG
The “PBM E-score” value of the first is higher: 0.12 for the first, 0.0456 for the second.

Going from AGGTAACG to AAGGGCGT, the “PBM E-score” value rises from -0.139 to -0.0443.

Compared with CACTCTCG, TCGAATAA is higher in “PBM E-score” value: -0.0438 for the first, 0.193 for the second.

Going from CGCCCAAG to CTCGGTCC, the “PBM E-score” value rises from -0.195 to -0.168.

Going from CCAGACAC to CTAAACTA, the “PBM E-score” value rises from -0.24 to 0.0179.

First: CATCGCCC
Second: CGTGATAG
The “PBM E-score” value of the first is lower: -0.235 for the first, -0.045 for the second.

Compared with CATTACCC, CGGTTACA is higher in “PBM E-score” value: -0.29 for the first, 0.0159 for the second.

First: ATGAACAT
Second: CAAACTAG
The “PBM E-score” value of the first is higher: 0.217 for the first, 0.107 for the second.

Going from AGGTGCCC to CAGGATAG, the “PBM E-score” value rises from -0.31 to -0.00567.

First: AGAAAGAG
Second: ATCTTGGC
The “PBM E-score” value of the first is lower: -0.132 for the first, -0.0132 for the second.

Compared with GAACAGTC, CCCGTTTC is lower in “PBM E-score” value: -0.0146 for the first, -0.0848 for the second.

First: GATACGTA
Second: ATCTTTCC
The “PBM E-score” value of the first is lower: -0.0255 for the first, 0.154 for the second.

Compared with ATGTGTGA, AAGTAATC is higher in “PBM E-score” value: -0.00036 for the first, 0.233 for the second.

Going from ATTCTCGC to CAAGGTCA, the “PBM E-score” value falls from -0.0709 to -0.117.

Compared with AGTGAAAG, CCATGCCA is lower in “PBM E-score” value: 0.125 for the first, -0.00619 for the second.

Going from ACAGGGCG to CACACTCC, the “PBM E-score” value rises from -0.153 to -0.0903.

Compared with TCCAGGGA, AAGGGCGA is lower in “PBM E-score” value: -0.0294 for the first, -0.26 for the second.

First: AGGAGCTG
Second: ATCCCGTG
The “PBM E-score” value of the first is lower: -0.209 for the first, -0.0178 for the second.
